The source of these data is the supplement of paper PMC12217912.

B1: TEV protease; numbered along this chain (parent)
chain: MGESLFKGPRDYNPISSSICHLTNESDGHTTSLYGIGFGPFIITNKHLFRRNNGTLVVQSLHGVFKVKDTTTLQQHLVDGRDMIIIRMPKDFPPFPQKLKFREPQREERICLVTTNFQTKSMSSMVSDTSCTFPSGDGIFWKHWIQTKDGQCGSPLVSTRDGFIVGIHSASNFTNTNNYFTSVPKNFMELLTNQEAQQWVSGWRLNADSVLWGGHKVFMVKPEEPFQPVKEATQL

Variants of B1 are the subject of this experiment. The experiment is described as follows: raw area under fraction-flipped curve 0-4 h after induction (AUC4h, not background-subtracted), DNA-recorder readout of cleavage of the substrate (dimensionless); higher = more cleavage of the substrate by the protease variant. The conditions noted are these: temperature: 34 °C; time window: 0-4 h after rhamnose induction. Here is the method: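 In vivo DNA recorder in E. coli TOP10(DE3) ΔrhaA at 34 °C. Each TEVp single-site mutant (parent TEVp 0) is paired with a single-site variant of the 7-mer TEVs (canonical ENLYFQ|S). The substrate sits between flexible linkers in a Bxb1-sfGFP-TEVs-SsrA fusion, so cleavage stabilises Bxb1 and speeds flipping of a recombination array, read by NGS. The value is the raw area under the fraction-flipped curve over 0-4 h after rhamnose induction (AUC4h), with ≥20 reads per time point. It is not background-subtracted; inactive controls average about 0.047.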

The list shows a part of the results. Sequences were assembled here from the parent chain. Inactive controls read about 0.05.
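Note: Bxb1 expression induced with 0.2% (w/v) L-rhamnose at OD600 near 0.5, cultures sampled hourly, flipped fraction per protease–substrate barcode pair counted by paired-end Illumina sequencing.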

With MGESLFKGPRDYNPISSSICHLTNESDGHTTSLYGIGFGPFIITNKHLFRRNNGTLVVQSLHGVFKVKDTTTLQQHLVDGRDMIIIRMPKDFPPFEQKLKFREPQREERICLVTTNFQTKSMSSMVSDTSCTFPSGDGIFWKHWIQTKDGQCGSPLVSTRDGFIVGIHSASNFTNTNNYFTSVPKNFMELLTNQEAQQWVSGWRLNADSVLWGGHKVFMVKPEEPFQPVKEATQL [P96E], the “area with substrate ENLYCQS” value stood at 0.0865, the “area with substrate ENLYDQS” value came out at 0.0544, the “area with substrate ENLYEQS” value was 0.0713 and the “area with substrate ENLYGQS” value was found to be 0.0709. In addition, the “area with substrate ENLYHQS” value is 0.0813, the “area with substrate ENLYIQS” value turned out to be 0.113, the “area with substrate ENLYKQS” value came to 0.0558 and the “area with substrate ENLYLQS” value worked out at 0.102. Also, the “area with substrate ENLYMQS” value is 0.0884, the “area with substrate ENLYPQS” value was 0.0754, the “area with substrate ENLYQQS” value was 0.0514 and the “area with substrate ENLYRQS” value came to 0.062. Further, the “area with substrate ENLYSQS” value was found to be 0.127.
Take MGESLFKGPRDYNPISSSICHLTNESDGHTTSLYGIGFGPFIITNKHLFRRNNGTLVVQSLHGVFKVKDTTTLQQHLVDGRDMIIIRMPKDFPPFCQKLKFREPQREERICLVTTNFQTKSMSSMVSDTSCTFPSGDGIFWKHWIQTKDGQCGSPLVSTRDGFIVGIHSASNFTNTNNYFTSVPKNFMELLTNQEAQQWVSGWRLNADSVLWGGHKVFMVKPEEPFQPVKEATQL [P96C]: the “area with substrate ENLYCQS” value was found to be 0.0783, the “area with substrate ENLYDQS” value is 0.0564, the “area with substrate ENLYEQS” value came out at 0.0638 and the “area with substrate ENLYGQS” value was determined as 0.0627. Also, the “area with substrate ENLYHQS” value amounted to 0.068, the “area with substrate ENLYIQS” value came to 0.19, the “area with substrate ENLYKQS” value is 0.0439 and the “area with substrate ENLYMQS” value stood at 0.0973. Moreover, the “area with substrate ENLYNQS” value turned out to be 0.0602, the “area with substrate ENLYPQS” value turned out to be 0.0773, the “area with substrate ENLYQQS” value came out at 0.0642 and the “area with substrate ENLYWQS” value is 0.0823.
For the variant MGESLFKGPRDYNPISSSICHLTNESDGHTTSLYGIGFGPFIITNKHLFRRNNGTLVVQSLHGVFKVKDTTTLQQHLVDGRDMIIIRMPKDFPPFHQKLKFREPQREERICLVTTNFQTKSMSSMVSDTSCTFPSGDGIFWKHWIQTKDGQCGSPLVSTRDGFIVGIHSASNFTNTNNYFTSVPKNFMELLTNQEAQQWVSGWRLNADSVLWGGHKVFMVKPEEPFQPVKEATQL [P96H], the “area with substrate ENLYCQS” value was determined as 0.0698, the “area with substrate ENLYDQS” value was 0.0631, the “area with substrate ENLYGQS” value is 0.0636 and the “area with substrate ENLYHQS” value worked out at 0.0567. Also, the “area with substrate ENLYIQS” value came to 0.0639, the “area with substrate ENLYKQS” value stood at 0.0631, the “area with substrate ENLYLQS” value stood at 0.0783 and the “area with substrate ENLYMQS” value worked out at 0.0695. Besides, the “area with substrate ENLYNQS” value came to 0.0609, the “area with substrate ENLYPQS” value is 0.0729, the “area with substrate ENLYQQS” value stood at 0.0582 and the “area with substrate ENLYSQS” value was 0.0672. The “area with substrate ENLYTQS” value was found to be 0.0671, the “area with substrate ENLYVQS” value is 0.121, the “area with substrate ENLYWQS” value was 0.0915 and the “area with substrate ENLYYQS” value worked out at 0.0612.
Consider MGESLFKGPRDYNPISSSICHLTNESDGHTTSLYGIGFGPFIITNKHLFRRNNGTLVVQSLHGVFKVKDTTTLQQHLVDARDMIIIRMPKDFPPFPQKLKFREPQREERICLVTTNFQTKSMSSMVSDTSCTFPSGDGIFWKHWIQTKDGQCGSPLVSTRDGFIVGIHSASNFTNTNNYFTSVPKNFMELLTNQEAQQWVSGWRLNADSVLWGGHKVFMVKPEEPFQPVKEATQL [G80A], for which the “area with substrate ENLYCQS” value is 0.0974, the “area with substrate ENLYDQS” value was 0.0604, the “area with substrate ENLYEQS” value is 0.0688 and the “area with substrate ENLYIQS” value is 0.0939. Moreover, the “area with substrate ENLYKQS” value is 0.0646, the “area with substrate ENLYMQS” value is 0.0894, the “area with substrate ENLYNQS” value turned out to be 0.0437 and the “area with substrate ENLYPQS” value amounted to 0.0805. The “area with substrate ENLYRQS” value worked out at 0.0545, the “area with substrate ENLYWQS” value is 0.0785 and the “area with substrate ENLYYQS” value worked out at 0.0828.
For MGESLFKGPRDYNPISSSICHLTNESDGHTTSLYGIGFGPFIITNKHLFRRNNGTLVVQSLHGVFKVKDTTTLQQHLVDGRDMIIIRMPKDFPPYPQKLKFREPQREERICLVTTNFQTKSMSSMVSDTSCTFPSGDGIFWKHWIQTKDGQCGSPLVSTRDGFIVGIHSASNFTNTNNYFTSVPKNFMELLTNQEAQQWVSGWRLNADSVLWGGHKVFMVKPEEPFQPVKEATQL [F95Y], the “area with substrate ENLYCQS” value was found to be 0.0785, the “area with substrate ENLYDQS” value is 0.0346, the “area with substrate ENLYEQS” value was found to be 0.064 and the “area with substrate ENLYHQS” value was 0.0674. Further, the “area with substrate ENLYIQS” value stood at 0.111, the “area with substrate ENLYNQS” value stood at 0.0669, the “area with substrate ENLYPQS” value stood at 0.0723 and the “area with substrate ENLYQQS” value worked out at 0.0607. The “area with substrate ENLYRQS” value was determined as 0.0532 and the “area with substrate ENLYWQS” value was found to be 0.0728.
Take MGESLFKGPRDYNPISSSICHLTNESDGHTTSLYGIGFGPFIITNKHLFRRNNGTLVVQSLHGVFKVKDTTTLQQHLVDGRDMIIIRMPKDFPPFPQKLKFREPQREERICLVTTNFQTKSMSSMVTDTSCTFPSGDGIFWKHWIQTKDGQCGSPLVSTRDGFIVGIHSASNFTNTNNYFTSVPKNFMELLTNQEAQQWVSGWRLNADSVLWGGHKVFMVKPEEPFQPVKEATQL [S127T]: the “area with substrate ENLYCQS” value was 0.0955, the “area with substrate ENLYDQS” value is 0.0839, the “area with substrate ENLYEQS” value is 0.0652 and the “area with substrate ENLYGQS” value amounted to 0.0641. Moreover, the “area with substrate ENLYHQS” value is 0.0643, the “area with substrate ENLYIQS” value was 0.128, the “area with substrate ENLYKQS” value turned out to be 0.061 and the “area with substrate ENLYMQS” value amounted to 0.139. Further, the “area with substrate ENLYNQS” value worked out at 0.079, the “area with substrate ENLYPQS” value is 0.0693, the “area with substrate ENLYQQS” value was 0.0676 and the “area with substrate ENLYTQS” value was found to be 0.0723. The “area with substrate ENLYVQS” value is 0.108 and the “area with substrate ENLYWQS” value was 0.0913.
For the variant MGESLFKGPRDYNPISSSICHLTNESDGHTTSLYGIGFGPFIITNKHLFRRNNGTLVVQSLHGVFKVKDTTTLQQHLVDGRDMIIIRMPKDFPPFPQKLKFREPQREERICGVTTNFQTKSMSSMVSDTSCTFPSGDGIFWKHWIQTKDGQCGSPLVSTRDGFIVGIHSASNFTNTNNYFTSVPKNFMELLTNQEAQQWVSGWRLNADSVLWGGHKVFMVKPEEPFQPVKEATQL [L112G], the “area with substrate ENLYCQS” value is 0.0516, the “area with substrate ENLYDQS” value turned out to be 0.0715, the “area with substrate ENLYEQS” value was determined as 0.0646 and the “area with substrate ENLYGQS” value was determined as 0.0794. In addition, the “area with substrate ENLYHQS” value was 0.0581, the “area with substrate ENLYIQS” value amounted to 0.0631, the “area with substrate ENLYKQS” value came out at 0.0605 and the “area with substrate ENLYLQS” value stood at 0.0542. Moreover, the “area with substrate ENLYMQS” value is 0.0561, the “area with substrate ENLYNQS” value came to 0.0595, the “area with substrate ENLYPQS” value was 0.0726 and the “area with substrate ENLYQQS” value turned out to be 0.054. The “area with substrate ENLYRQS” value was 0.0777, the “area with substrate ENLYSQS” value is 0.0619, the “area with substrate ENLYTQS” value stood at 0.0595 and the “area with substrate ENLYVQS” value worked out at 0.0679.
As for MGESLFKGPRDYNPISSSICHLTNESDGHTTSLYGIGFGPFIITNKHLFRRNNGTLVVQSLHGVFKVKDTTTLQQHLVDGRDMIIIRMPKDFPPFPQKLKFREPQREERICVVTTNFQTKSMSSMVSDTSCTFPSGDGIFWKHWIQTKDGQCGSPLVSTRDGFIVGIHSASNFTNTNNYFTSVPKNFMELLTNQEAQQWVSGWRLNADSVLWGGHKVFMVKPEEPFQPVKEATQL [L112V], the “area with substrate ENLYCQS” value was 0.0902, the “area with substrate ENLYDQS” value came to 0.0736, the “area with substrate ENLYEQS” value came out at 0.0736 and the “area with substrate ENLYHQS” value was found to be 0.0617. Besides, the “area with substrate ENLYIQS” value stood at 0.096, the “area with substrate ENLYMQS” value stood at 0.0864, the “area with substrate ENLYNQS” value was determined as 0.0745 and the “area with substrate ENLYQQS” value came to 0.0682. The “area with substrate ENLYRQS” value came to 0.06, the “area with substrate ENLYSQS” value was determined as 0.07 and the “area with substrate ENLYWQS” value came out at 0.0871.
Regarding MGESLFKGPRDYNPISSSICHLTNESDGHTTSLYGIGFGPFIITNKHLFRRNNGTLVVQSLHGVFKVKDTTTLQQHLVDGRDMIIIRMPKDFPPFPQKLKFREPQREERICMVTTNFQTKSMSSMVSDTSCTFPSGDGIFWKHWIQTKDGQCGSPLVSTRDGFIVGIHSASNFTNTNNYFTSVPKNFMELLTNQEAQQWVSGWRLNADSVLWGGHKVFMVKPEEPFQPVKEATQL [L112M], the “area with substrate ENLYCQS” value was found to be 0.0791, the “area with substrate ENLYDQS” value turned out to be 0.0612, the “area with substrate ENLYGQS” value is 0.0651 and the “area with substrate ENLYHQS” value was 0.0651. Moreover, the “area with substrate ENLYIQS” value was found to be 0.11, the “area with substrate ENLYKQS” value is 0.064, the “area with substrate ENLYMQS” value came out at 0.0916 and the “area with substrate ENLYNQS” value amounted to 0.0955. The “area with substrate ENLYQQS” value amounted to 0.0658, the “area with substrate ENLYRQS” value worked out at 0.0587 and the “area with substrate ENLYVQS” value worked out at 0.131.
